Source: PubChem BioAssay AID256 (DTP/NCI, 2004)
Inconclusive results and toxic doses are left out. A number of entries come with more than one value. The list is limited to them. An entry can have further records. The records of an entry do not match, cause unknown; they may come from other doses, times, organisms or constructs than stated.

Tested on: CD2F1 mice, L1210 leukemia ip, survival T/C
Test: NCI In Vivo Anticancer Drug Screen. Data for tumor model L1210 Leukemia (intraperitoneal) in CD2F1 (CDF1) mice
Conditions: endpoint: median survival time; dose: 4.0 mg/kg/injection; schedule: Q04DX003 (ip); vehicle: other; higher = longer survival
Method: The antitumor activity of compounds was measured in mice bearing transplantable tumors. Survival or tumor size were measured and the results are expressed as the measurement made in the treated group (T) divided by the measurement made in the vehicle treated control group (C). The tumor model used in this assay is L1210 Leukemia (intraperitoneal) in CD2F1 (CDF1) mice

In the case of COc1cc(NS(C)(=O)=O)ccc1Nc1c2ccccc2nc2ccccc12, the T/C is reported as 118 % of control and 150 % of control.
